# Results as given in ChEMBL document CHEMBL4888484, “Replenishing the malaria drug discovery pipeline: Screening and hit evaluation of the MMV Hit Generation Library 1 (HGL1) against asexual blood stage Plasmodium falciparum ,using a nano luciferase reporter read-out” (2022).
# The campaign covered roughly 150,000 compounds. About 540 (0.36%) showed an effect of 50% or more. Some of the results follow.
# Tested on: Plasmodium falciparum
# Experiment: Primary screen in NF54 nanoGlo assay, in single point, at 2uM, 72h; a lower Z score goes with more inhibition
# Type: functional, Erythrocyte
# Settings: timepoint 72 hour
SMILES,% Inhibition [%],Z score
CS(=O)(=O)c1ccc(CN2CCC[C@H]2COc2ccccc2)o1,3,-0.36
Cn1cncc1CNC(=O)c1ncccc1O,2,-0.3
Cc1ccc(Nc2nc(=O)[nH]nc2C)c(C)c1,0,0.01
CCOCCN1CCN(C(=O)c2ccon2)CC1,-8,1.46
O=C(c1ccc2[nH]ccc2c1)N1CCN(C(=O)c2cc3n(n2)CCCC3)CC1,-7,1.02
CCn1c(CN[C@@H](C)c2ccccc2Cl)nc2cc(S(=O)(=O)N3CCCCC3)ccc21,30,-3.83
c1cc2cc(CN(Cc3cscn3)C3CC3)ccc2[nH]1,13,-1.67
CCN(CC(=O)NCc1cccs1)Cc1cc(=O)n(C)c(=O)n1C,-9,1.81
CCOC(=O)N1CCN(C(=O)[C@H]2CC23CCN(Cc2cc4ccccc4o2)CC3)CC1,-9,1.24
CCOC(=O)c1nccn1[C@H]1CCN(Cc2ccccc2)C1,-6,1.19
COc1ccc(-c2noc(N3CCN(c4ncccn4)CC3)n2)cc1OC,-17,1.51
O=c1cc(-c2nc([C@H]3CCOC3)no2)[nH]c2ccccc12,-24,3.07
Cc1noc([C@H]2CCN(Cc3ccco3)C[C@H]2NC(=O)C2CCOCC2)n1,-9,1.21
CS(=O)(=O)N(CCN1C(=O)c2ccccc2C1=O)CCN1C(=O)c2ccccc2C1=O,-2,0.28
Cc1cccc2[nH]cc(CCNC(=O)N[C@@H]3CCCC[C@H]3O)c12,-4,0.68
Cc1cc(F)ccc1NS(=O)(=O)c1cc(-c2noc(C(=O)N3CCCCCC3)n2)ccc1C,-5,0.53
CC(C)(C)OC(=O)NC1(C(=O)O)CC1c1ccccc1 (stereo not drawn),-1,0.09
COc1ccc(NC(=O)[C@@H]2Cn3cccc3C(=O)N2)cc1,-5,0.81
Cc1ccccc1OC1CN(C(=O)CN2CCC[C@H](O)C2)C1,-12,1.06
CC(=O)Nc1ccc(S(=O)(=O)n2cc3c(=O)n(C(C)C)c(=O)n(C(C)C)c3n2)cc1,-1,0.15
Cc1cnc2c(c1)N(S(=O)(=O)c1ccc(C3CC3)cc1)CCO2,5,-0.98

SMILES,% Inhibition [%],Z score
C[C@@H](Cc1ccc2ccccc2c1)NC(=O)Cn1cnnn1,-13,2.41
Cc1nc(N)nc(C)c1CC(=O)N1CCC[C@H](CCc2c(F)cccc2F)C1,3,-0.37
COc1ccc(CN2C(=O)COC[C@H]2C(=O)N2CCN(c3ccc(OC)cc3)CC2)cc1,-6,0.65
Cc1ccc(-c2nn(Cc3ccc(Cl)cc3)c3nc(C)cc(C)c23)cc1,0,0.01
CN(C)C(=O)CNC1CCCCC1C(C)(C)C (stereo not drawn),-10,1.83
Cc1cnc(C(=O)NC[C@@H](c2ccc(C)o2)N2CCCC2)c(C)c1,-1,0.09
CC(=O)Nc1ccc(S(=O)(=O)N2C[C@@H](F)C[C@H]2C(=O)N2CCc3ccccc32)cc1,-10,1.31
COc1cc(C(=O)NC2CCCCC2)ccc1OC1CCN(C(C)=O)CC1,-16,2.35
CCOc1cccc(CNc2ccc(C(=O)N(C)OC)cc2)n1,6,-0.94
Cc1cc(C(=O)N2C[C@H]3CC[C@@H](C2)N(CC2CC2)C3)n(C)n1,3,-0.5
Cn1cc(S(=O)(=O)Nc2nc3ccccc3nc2N2CCNC(=O)C2)cn1,1,-0.19
OC1CCCCC1N1CCc2sccc2C1 (stereo not drawn),-21,2.66
COc1ccc(C(=O)NCCNC(=O)c2nc(Cn3cc(Cl)cn3)no2)cc1OC,-10,1.05
COc1cc(C(=O)O)ccc1-c1ccc(C(=O)N2CCCNCC2)cc1,-13,1.65
Cc1onc(CC(=O)N2CC3(CCC3)C2C2CCCO2)c1C#N (stereo not drawn),3,-0.4
Cc1ccc([C@H](C)Nc2ncnc3[nH]ncc23)o1,0,-0.02
CC1CCC(NC(=O)N[C@H](C)C2CCCc3ccccc32)CS1(=O)=O (stereo partly drawn),-4,0.68
Cc1ccc(CCC(=O)Nc2cccc(N(C)S(C)(=O)=O)c2)cc1,-23,2.11
CC1=NN(Cc2ccccc2)C(=O)[C@H]1C(=O)Nc1nccs1,-2,0.22
CC(C)C(=O)NC[C@H](C)Oc1ccc(F)cc1,1,-0.11
O=C(O)c1ccc(COc2ccc(CN3CCOC4(CCCC4)C3)cc2)o1,4,-0.78

SMILES,% Inhibition [%],Z score
O=C(CCc1nc(-c2ccc(S(=O)(=O)N3CCOCC3)cc2)no1)Nc1cccc(Cl)c1,-4,0.46
NS(=O)(=O)c1ccc(CCNC2CCC(c3ccccc3)C2)cc1 (stereo not drawn),-6,0.69
Cc1noc(C)c1CN1CC2(CCN(C(=O)c3cnccn3)CC2)CC1=O,-11,1.69
COCCc1ncnn1C1Cc2ccccc2C1,-18,1.97
Cc1cc(-c2nc(C3CN4CCCCC4CO3)no2)n[nH]1 (stereo not drawn),-13,1.82
Cc1nc2nc(N)n(-c3ccccc3)[n+]2c(C)c1C,3,-0.37
COc1cc(-c2cc(C3CC3)c(C#N)c(N)n2)cc(OC)c1OC,0,-0.03
COc1ccccc1OCC[C@H]1CCN(C(=O)CC2CCCC2)C1,-11,2.07
O=C1NCCOCCCN(C(=O)NCc2ccccc2)[C@H]2CCC[C@@H]12,-7,0.95
O=C(NC1CC(c2cccc(Cl)c2)C1)N[C@H]1CC[C@@H](CO)C1 (stereo partly drawn),-8,0.87
CCC(=O)N1c2ncnn2C(c2ccc(C)cc2)CC1c1ccccc1 (stereo not drawn),3,-0.41
O=C(NC[C@H]1CCCN(C(=O)C2=CCCC2)C1)c1ccccc1Cl,-10,1.16
COC(=O)[C@@H]1C[C@@H](N(C)C)CN1S(=O)(=O)c1ccc(NC(C)=O)cc1,-1,0.12
CC1CN(c2ccc3nnnn3n2)CC(C)O1 (stereo not drawn),-22,1.88
Cc1ccc(C(=O)Nc2ccc(N3CCCN(C(=O)NC(C)(C)C)CC3)c(C(=O)N3CCCCC3)c2)cc1,1,-0.16
Cc1ccc(C(=O)N(CCN2CCOCC2)CC(=O)Nc2nc(-c3ccccc3)cn2-c2ccc(C)cc2)cc1,-2,0.26
Cc1cc2c(N3CC[C@H](N4CCOCC4)[C@H](CCC(=O)O)C3)ncnc2s1,-12,1.51
COc1ccc(C(=O)N2CCN(c3ccc(=O)n(-c4ccc(C)cc4)n3)CC2)cc1,21,-2.44
CC(C)C(=O)NCc1ccc(CNC(=O)C(C)C)cc1,-4,0.51
C[C@@H](CC(=O)NC(CO)CO)c1ccccc1Br,3,-0.48
CC(=O)N1CCN(C(=O)Cn2cnc3c2CC(C)C(C)C3)CC1 (stereo not drawn),-9,1.6

SMILES,% Inhibition [%],Z score
Cc1ccc2nc(C(=O)Nc3ccccc3N3C(=O)N[C@@H](C)C3=O)c(F)n2c1,0,0.04
Cc1ccc2[nH]c(CN3CCS(=O)(=O)C(C)C3C)cc2c1C (stereo not drawn),-2,0.46
O=C(NCC(F)(F)c1ccc(F)cc1)NC1CC2CCCCN2C1=O (stereo not drawn),-10,1.27
O=C(O)CC1(NC(=O)c2ccc3ccccc3c2)CCCC1,22,-2.61
CCN(Cc1cnc2ccccn12)S(=O)(=O)N(C)C,0,-0.02
Cc1ccc2c(c1)-c1c(cnc3cc(-c4ccc(Cl)cc4)nn13)CO2,14,-1.6
Cc1ccc2ncc(C(=O)N3CC(c4ccccc4F)C3)n2c1,-8,1.06
COc1ccc(Cl)cc1N1CCN(Cc2ccc(C(=O)N[C@@H](C)c3ccccc3)o2)CC1,-6,1.05
O=C(c1cc(C(F)(F)F)n[nH]1)N(Cc1ccncc1)C1CCCCC1,-10,1.03
COc1ccc2c(c1)OCC[C@@H]2Nc1nc(C(C)C)no1,1,-0.18
COc1ccc(C2=NNC(c3ccc(F)cc3)=Nc3ccc(F)cc32)cc1,9,-1.09
c1ccc2oc(CN3CCN(c4nccs4)CC3)nc2c1,-1,0.22
COCC1CCN(C(=O)C2CCCCN2C(C)C)C1 (stereo not drawn),-3,0.49
CC(C)n1cc(CNC[C@H]2CCO[C@@H]2C(C)(C)C)cn1,-2,0.32
Cc1cc(C)n2cc(CNC(=O)C[C@@H]3NC(=O)NC3=O)nc2c1,4,-0.76
O=C(NCCCc1cnc2ncnn2c1)c1ccncc1,8,-1.58
O=C(O)CC[C@H]1CCCN(C(=O)c2cc3ccccc3cc2O)C1,-7,0.98
c1cc(-c2n[nH]c(C3CCCCC3)n2)c2cccnc2c1,-4,0.71
C[C@H](NC(=O)C1(C)CCOCC1)c1ccn(C)n1,3,-0.52
CCOC(=O)c1[nH]c(NC(C)=O)c(C#N)c1C,-10,1.5
CC(C)(C)OC(=O)N/N=C(\N)COc1cc(Cl)cc(Cl)c1,5,-0.52
